{
  "source": "paper PMC9574860",
  "about": "“Chemical Toolkit for PARK7: Potent, Selective, and High-Throughput” (Journal of Medicinal Chemistry, 2022)",
  "note": "About 400 (5.1%) of roughly 7,900 compounds showed an effect of 50% or more. The list shows a part of the results.",
  "data": [
    {"biological_target": "Parkinson's disease protein 7 (PARK7/DJ1) (human, UniProt Q99497)", "sequence (Q99497 whole entry, looked up, the tested form may be a part)": "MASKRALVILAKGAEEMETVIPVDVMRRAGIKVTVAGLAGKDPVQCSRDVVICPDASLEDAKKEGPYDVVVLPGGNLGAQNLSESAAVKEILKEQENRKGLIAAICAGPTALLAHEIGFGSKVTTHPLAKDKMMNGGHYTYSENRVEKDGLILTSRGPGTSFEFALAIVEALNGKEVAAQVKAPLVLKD", "experiment": "primary screen, percent inhibition; read as competition with a fluorescent probe by fluorescence polarization; higher = more effect of the substance", "details": "100 µM", "experimental": "The screen was conducted using the conditions as described above in 1536-well plates (Corning 3724) with a reaction volume of 8 μL per well. The compound library containing 7887 covalent fragments was purchased at Enamine Ltd. and received as 100 mM DMSO stocks in 384 well LDV Echo plates (Labcyte LP-0200). Stock solutions of 0.26 μM PARK7 and 80 nM JYQ-107 were prepared. Using a Labcyte Echo550 acoustic dispenser, 8 nL of the DMSO stock solution of the library compounds was transferred from the source plates into the empty 1536-well screening plates to obtain a 100 μM final compound concentration. Next, PARK7 (6 μL, final concentration 0.2 μM) was dispensed using a Biotek MultiflowFX liquid dispenser and incubated for 2 h, followed by dispensing the probe JYQ-107 (2 μL, final concentration 20 nM). After 2 h incubation, the FP signal was recorded on a BMG Labtech PHERAstar plate reader (λex/em 480/520 nm). The relative loss of FP signal compared with reference controls was used to calculate the remaining enzyme activity.", "units": {"Inhibition %": "%"}, "values": [
      {"molecule": "Cc1n[nH]c(=O)c2c(NC(=O)CCl)oc(C)c12", "Inhibition %": 30},
      {"molecule": "Cc1ncc(CN(C)C(=O)c2cccnc2S)s1", "Inhibition %": 6.27},
      {"molecule": "O=C(O)c1ccc2c(c1)B(O)OC2", "Inhibition %": 6.29},
      {"molecule": "C=CC(=O)N1CCC(c2ccc(OC)cn2)CC1", "Inhibition %": 3.08},
      {"molecule": "COc1ccc(NC(C)=O)cc1NC(=O)CCl", "Inhibition %": 10.5},
      {"molecule": "Cn1cc(C=C(C#N)C(N)=O)c(-c2ccccc2Cl)n1", "Inhibition %": 8.92},
      {"molecule": "C=CC(=O)N1CCOc2ccc(F)cc2C1", "Inhibition %": 11.2},
      {"molecule": "C=CC(=O)Nc1ccccc1CN1CCOCC1", "Inhibition %": 8.41},
      {"molecule": "C=CCn1c(S)nc2cc(C(=O)O)ccc2c1=O", "Inhibition %": 4.61},
      {"molecule": "Cc1nc(C=CC(=O)N2CCNCC2C)cs1", "note": "(stereo not drawn)", "Inhibition %": -1.13},
      {"molecule": "C=CC(=O)NC1CCN(c2ccc(Cl)c(F)c2)C1", "note": "(stereo not drawn)", "Inhibition %": 7.63},
      {"molecule": "CC1(C)OB(c2cc(Br)ccc2F)OC1(C)C", "Inhibition %": 18.2},
      {"molecule": "C=CC(=O)N1CCC(c2ccc(C)nc2)CC1", "Inhibition %": 4.08},
      {"molecule": "Cl.O=C(CCl)Nc1ccc(N2CCCCC2)cc1", "Inhibition %": 89.3},
      {"molecule": "CC(C)(C)c1ccc(NC(=O)Cn2cnc(C#N)n2)cc1", "Inhibition %": 25.6},
      {"molecule": "CC1(C)OB(c2cnn(-c3ccccn3)c2)OC1(C)C", "Inhibition %": 24.7},
      {"molecule": "N#CN(Cc1ccc(C(N)=O)cc1)c1ccc(F)cc1", "Inhibition %": 3.09},
      {"molecule": "O=S(=O)(F)c1ccc2ccccc2n1", "Inhibition %": 69.3},
      {"molecule": "O=c1oc(-c2ccccc2)nn1CN1CCCCC1", "Inhibition %": 3.5},
      {"molecule": "C=CC(=O)Nc1ccc(N2CCN(C)CC2)nc1", "Inhibition %": 15},
      {"molecule": "CCc1nccn1S(=O)(=O)c1cc(C)c(OC)cc1C", "Inhibition %": 7.23},
      {"molecule": "C=CC(=O)Nc1ccc2c(c1)COC2", "Inhibition %": 11.5},
      {"molecule": "COc1cccc(C2(C)NC(=O)N(NC(=O)CCl)C2=O)c1", "note": "(stereo not drawn)", "Inhibition %": 2.08},
      {"molecule": "Cl.ClCCN1CCCCC1", "Inhibition %": 2.77},
      {"molecule": "CC1CNCCN1C(=O)C=Cc1ccnn1C.O=C(O)C(F)(F)F", "note": "(stereo not drawn)", "Inhibition %": 3.18},
      {"molecule": "CC1CC1c1ccc(C=CC(N)=O)o1", "note": "(stereo not drawn)", "Inhibition %": 12.7},
      {"molecule": "O=C(CCl)NCCc1cccc2ccccc12", "Inhibition %": 24.9},
      {"molecule": "C=CC(=O)N1CCN(c2cccnc2)C(=O)C1", "Inhibition %": 7.51},
      {"molecule": "C=CC(=O)NCCc1cncnc1", "Inhibition %": 10.1},
      {"molecule": "CCN(CC)C(=O)CNc1ccc(Cl)c(C#N)n1", "Inhibition %": 9.41},
      {"molecule": "CC1(C)OB(c2cnc(N3CCC(CO)C3)nc2)OC1(C)C", "note": "(stereo not drawn)", "Inhibition %": 10.6},
      {"molecule": "N#Cc1ncc(C(=O)O)s1", "Inhibition %": 2.28},
      {"molecule": "CN(C)C(=O)c1cncc(B2OC(C)(C)C(C)(C)O2)c1", "Inhibition %": 4.96}
    ]}
  ]
}
